Source: paper PMC4336329 (PLoS ONE, 2015)
Out of some 310,000 compounds screened, about 2,200 (0.71%) showed an effect of 50% or more. Effects have a minus sign here. The list shows a part of the results.

These compounds were tested against human ether-à-go-go-related gene (hERG) potassium channel (human, UniProt Q12809) (assay: primary screen, population patch clamp on CHO cells stably expressing hERG).
Sequence of human ether-à-go-go-related gene (hERG) potassium channel (Q12809 whole entry, looked up): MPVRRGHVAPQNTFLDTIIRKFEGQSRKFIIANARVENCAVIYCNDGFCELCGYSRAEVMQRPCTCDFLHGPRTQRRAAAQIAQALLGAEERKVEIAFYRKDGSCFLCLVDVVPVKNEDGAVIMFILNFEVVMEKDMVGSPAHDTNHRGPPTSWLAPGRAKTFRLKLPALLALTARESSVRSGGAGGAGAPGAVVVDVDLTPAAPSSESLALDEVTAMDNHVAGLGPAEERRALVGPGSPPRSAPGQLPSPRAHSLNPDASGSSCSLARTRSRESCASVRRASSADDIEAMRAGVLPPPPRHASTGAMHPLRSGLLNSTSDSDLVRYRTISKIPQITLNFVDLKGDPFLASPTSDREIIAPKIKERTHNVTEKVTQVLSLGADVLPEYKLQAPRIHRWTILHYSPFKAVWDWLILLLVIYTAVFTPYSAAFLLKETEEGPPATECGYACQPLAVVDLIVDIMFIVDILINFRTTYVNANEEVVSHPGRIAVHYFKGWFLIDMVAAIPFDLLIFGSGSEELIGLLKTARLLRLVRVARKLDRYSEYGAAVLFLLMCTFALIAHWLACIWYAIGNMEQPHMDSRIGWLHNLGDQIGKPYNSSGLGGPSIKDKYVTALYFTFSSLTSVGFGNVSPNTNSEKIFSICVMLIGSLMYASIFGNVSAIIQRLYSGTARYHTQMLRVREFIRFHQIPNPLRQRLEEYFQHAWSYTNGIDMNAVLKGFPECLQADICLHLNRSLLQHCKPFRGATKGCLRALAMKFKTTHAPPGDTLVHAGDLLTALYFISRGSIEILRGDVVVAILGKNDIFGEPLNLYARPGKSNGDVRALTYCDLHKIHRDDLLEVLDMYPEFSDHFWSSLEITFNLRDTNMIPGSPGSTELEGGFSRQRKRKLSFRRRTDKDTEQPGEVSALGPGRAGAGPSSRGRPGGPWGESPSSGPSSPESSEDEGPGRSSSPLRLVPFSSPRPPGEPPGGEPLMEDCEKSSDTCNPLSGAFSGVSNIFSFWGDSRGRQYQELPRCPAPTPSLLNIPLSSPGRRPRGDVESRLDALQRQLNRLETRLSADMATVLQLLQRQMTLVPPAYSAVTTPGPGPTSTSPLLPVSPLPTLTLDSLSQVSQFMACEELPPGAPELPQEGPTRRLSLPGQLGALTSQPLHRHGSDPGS

SMILES	hERG current change (%, negative = inhibition) at 1uM [%]
Cc1sc2ncnc(N3CCC(C(=O)N(C)CC(=O)Nc4ccc(Cl)c(C(F)(F)F)c4)CC3)c2c1C	12.2
O=C1c2ccccc2C(=O)c2c1oc(C(F)(F)F)c2C(=O)c1ccccc1	11.3
COc1cc(C(C)=O)ccc1OCC(O)CN1CCN(c2ccc(C)c(C)c2)CC1 (centres unmarked)	7.9
CCS(=O)(=O)N1N=C(c2ccccc2)CC1c1ccc2nccnc2c1 (centres unmarked)	9.12
CSc1nc2ccc(NS(=O)(=O)c3ccc(CNC(C)=O)cc3)cc2s1	6.06
COc1cc2cccc(OC)c(=O)c2c(O)c1OC	2.94
CCCCNC(=O)c1cc(C)no1	9.51
Oc1ccccc1C1Nc2cccc3cccc(c23)N1	8.29
Cc1ccc(-n2nc3c(=O)n(CCCC(=O)NCCc4ccccc4)nc(C)c3c2C)cc1	16
CCO[C@@H]1OC(C(=O)N2CCN(Cc3ccc4c(c3)OCO4)CC2)=C[C@H](C2CC2)[C@H]1CCCO	14.2
CN(C)Cc1nc2ccccc2c(=O)n1CC#N	7.68
CC(=O)NCCCc1c[nH]c2ccc(Cl)cc12	14.7
COc1cccc(/C=N/NC(=O)CCC(=O)Nc2ccc(Br)cc2)c1	13.5
CC1(C)OC(=O)N(CC(=O)Nc2ccccc2)C1(C)O (centres unmarked)	18.6
Cc1cccn2c(=O)nc(SCC(=O)NCc3ccco3)nc12	4.54
Cc1sc2nc(SCc3nc(-c4cccs4)no3)n(-c3ccccc3)c(=O)c2c1C	19.3
CC(=O)c1cccc(OCc2cc(C(=O)NCCC3=CCCCC3)no2)c1	11.2
C=CCNc1nc2c(c(=O)n(C)c(=O)n2C)n1CCCCCC	-3.73
COc1cccc(-n2c(-c3ccc4[nH]c(C)c(C)c4c3)n[nH]c2=S)c1	5.45
CCOc1ccc(NS(=O)(=O)c2cc(OC)ccc2OC)cc1	2.98

SMILES	hERG current change (%, negative = inhibition) at 1uM [%]
Cc1ccc(SCC(=O)Nc2ccccc2N2CCOCC2)cc1	3.63
CCOC(=O)c1c(C)n(C)c2cc(Br)c(OC)cc12	14.4
CCc1ccc(NC(=O)Nc2ccncc2)cc1	-3.38
CN(CCc1ccccn1)C(=O)c1ccc(OC(F)(F)F)cc1.Cl	3.84
Cc1ccc(N(CCC(=O)O)S(=O)(=O)c2cccc(C(F)(F)F)c2)cc1	7.86
Cc1nnc(N2C(=O)C(O)=C(C(=O)c3ccco3)C2c2ccc(C(C)(C)C)cc2)s1 (centres unmarked)	10.5
CCOC(=O)c1nn(-c2ccc(C)cc2)cc1O	17.4
O=C(O)COc1ccccc1/C=C1\SC(=S)N(NC(=O)c2ccccc2O)C1=O	7.81
CN(C)C(=O)c1ccc2c(c1[N+](=O)[O-])C(=O)c1ccccc1C2=O	14.6
CCc1ccc(S(=O)(=O)NC2CC(C)(C)NC(C)(C)C2)cc1	5.35
Cc1nc2[nH]c(=O)c3c(n2n1)NC1=C(C(=O)CC(C)(C)C1)C3c1ccccc1 (centres unmarked)	-13.8
CC1=C(C(=O)OCC2CCCO2)C(c2ccsc2)C2=C(CC(C)(C)CC2=O)N1 (centres unmarked)	8.65
CCOC(=O)c1ccc(N2C(=O)C3CC=CCC3C2=O)cc1 (centres unmarked)	14.4
CN(C)c1ccc(/C=C(\C#N)C(=O)OCC(=O)N(C)C2CCS(=O)(=O)C2)cc1 (centres unmarked)	11.2
COc1ccc(CNC(=O)CCSCc2ccc(C)cc2)cc1	7.46
Cc1ccc(C)c(S(=O)(=O)Nc2ccc(C(=O)N3CCCCC3)cc2)c1	13.2
CC1=C(C(=O)Nc2ccccc2C)C(c2cccs2)NC(=S)N1 (centres unmarked)	4.18
COc1ccccc1/C=N/NC(=Nc1ccc(C)cc1)c1nc2ccccc2s1	20.5
CC1(C)Cc2ccccc2C(NNC(=O)c2ccccc2)=N1	7.76
O=C1CC2(CCN(C(=O)c3ccccc3F)CC2)Oc2ccccc21	-47.9

SMILES	hERG current change (%, negative = inhibition) at 1uM [%]
CSC1=NCCN1C(=O)c1ccc2c(c1)OCO2	6.88
CC(C)n1nnnc1SCC(=O)NNC(=O)C1CCCCC1	13
Cc1cc(N(CCO)CCO)nc(-n2nc(C)cc2C)n1	6.69
NNC(=O)Cn1c2ccccc2c2ccccc21	-2.26
COC(=O)c1cc(-c2ccc(Cl)cc2)n[nH]1	5.89
CC(Nc1ccnc2cc(Cl)ccc12)c1ccc(S(N)(=O)=O)cc1 (centres unmarked)	-4.25
OCCCc1nc2ccccc2n1CCOc1ccccc1	9.25
Cc1ccsc1/C=C(/C#N)C(=O)NCc1ccccc1	13.8
O=C(NC1CCCCCC1)C1CCN(S(=O)(=O)c2c(Cl)cccc2Cl)CC1	10.9
CCCCC(=O)NC(c1ccc(C(C)C)cc1)c1ccc2cccnc2c1O (centres unmarked)	18.2
Cc1oc(-c2ccccc2Cl)nc1CS(=O)CC(=O)NCCCN1CC(C)CC(C)C1 (centres unmarked)	18.2
Cc1cc(Cl)ccc1OCC(=O)Nc1ccccc1NS(=O)(=O)c1cccs1	8.67
Cc1ccc(N2C(=O)C3CCC(C)(C2=O)C3(C)C)cc1 (centres unmarked)	12.2
CCCOc1ccc(NC(=O)C2CCCNC2=O)cc1 (centres unmarked)	11.2
CC(C)(C)NC(=O)C(=O)NC(=O)c1c(F)cccc1Cl	6.52
O=C(Nc1ccc(OC(F)F)cc1)Nc1cccc(C(F)(F)F)c1	10.7
Cc1ccc(S(=O)(=O)N(C)C)cc1NC(=O)C(C)N(C)Cc1sccc1C (centres unmarked)	2.76
Cc1c(C=O)c2ccccn2c1C(=O)c1ccc(F)cc1	-1.68
Cc1ccnc(NC(=O)C2CCCN(S(=O)(=O)c3cnc[nH]3)C2)c1 (centres unmarked)	4.81
